# Results: PubChem BioAssay AID1347417 (National Center for Advancing Translational Sciences (NCATS), 2020)
# The campaign covered roughly 120,000 compounds. About 5,300 (4.4%) were called active. The shares of active, inactive and inconclusive entries below differ from those in the screen. The call rests on the fitted dose curve; in most records, active means well fitted inhibition curve with a large enough effect; inconclusive means small, poorly fitted or top-dose-only effect; inactive means no such curve, though single readings can be large or run the other way. Potencies beside an inconclusive call are fits to weak or partial responses and may not hold up.
# Assay: qHTS Primary assay for Inhibitors of Plasmodium falciparum Dd2 growth in vitro; further: nearly all actives have a fitted effect of over 65% in size;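 on activity, negative = inhibition: plate controls were DMSO vehicle for no effect and reference drug for full effect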
# Details: P. falciparum Dd2 growth, SYBR Green, 72 h; activity, negative = inhibition: at 28.9 µM (top of the series) unless noted; series mostly up to 28.9 µM
# Procedure, shortened: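 Readout: SYBR Green fluorescence, 485 nm excitation, 535 nm emission, after ~16 h lysis at 37C. Before that, Dd2-infected red cells (2.5% hematocrit) grew 72 h with compound, 29 uM top final concentration.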
# Potency means the concentration at half of the fitted maximal effect; tags describe the fitted curve by direction and shape.
Structure (SMILES),"activity, negative = inhibition",Potency,outcome
Cc1ccc(C(=O)N2CCCC(c3nc(C(C)C)no3)CCNC(=O)CC2)s1 (configuration not stated),inactive: -15.9%,–,–
Cc1cc(=O)n(CC(=O)Nc2ccc3c(c2)OCO3)c(-c2ccc(Cl)cc2)n1,–,"inconclusive: 17.8 µM [inhibitor, single point]",–
CCN(C(=O)CSc1nc2ncccc2[nH]1)c1ccc(C(C)C)cc1,inactive: -23.6%,–,–
O=C(COc1ccc(Cl)cc1)Nc1nnc(S(=O)(=O)N2CCc3ccccc32)s1,inactive: 20.8%,–,–
CCN(CC)CCCNC(=O)c1cn(C)c2ccc(S(=O)(=O)N(C)C3CCCCC3)cc2c1=O,inactive: 62%,–,–
Cc1cnc(CC2CCN(C(=O)Cc3cccc(F)c3)C2)n1C(C)C (configuration not stated),–,"inconclusive: 7.08 µM [inhibitor, partial curve, poor fit]",–
CC1Oc2ccc(NC(=O)Cc3ccc(F)cc3)cc2CN(Cc2ccccc2F)C1=O (configuration not stated),–,"inconclusive: 12.6 µM [inhibitor, single point]",–
CCc1ccccc1NC(=O)CSc1nc(C)c(C(=O)Nc2ccccc2)c(-c2ccc(Cl)cc2)c1C#N,–,"inconclusive: 17.8 µM [inhibitor, single point]",–
O=C(c1n[nH]c2ccccc12)N1CCC(OCCOc2ccccc2)CC1,–,–,inactive
CCC[C@H]1C[C@H]1C(=O)NCc1cc2c(nc1OC)CN(C1CCCC1)C2=O,inactive: -14.6%,–,–
COCc1cn([C@H]2CO[C@H]3[C@@H]2OC[C@@H]3NCc2cccc(C#N)c2)nn1,inactive: -0.798% [at 44.1 µM],–,–
CCN(CC)S(=O)(=O)c1ccc(NC(=O)c2ccc3c(=O)n4c(nc3c2)CCCCC4)cc1,–,"inconclusive: 12.6 µM [inhibitor, single point]",–
Cc1ccccc1CNC(=O)CCc1cn(Cc2ccccc2C)c2ccccc12,–,"inconclusive: 17.8 µM [inhibitor, single point]",–
CC(C)(C)c1ccc(C(=O)N2CCC(c3noc(-c4ccc(S(=O)(=O)N5CCCC5)cc4)n3)CC2)cc1,–,"inconclusive: 17.8 µM [inhibitor, single point]",–
Cc1c(C(=O)Nc2cccc(C(F)(F)F)c2)oc2ccc(S(=O)(=O)N3CCC4(CC3)OCCO4)cc12,–,"inconclusive: 11.2 µM [inhibitor, single point]",–
O=C(CSCc1ccc(F)cc1)N1CCc2c([nH]c3ccccc23)C1c1ccc(F)cc1 (configuration not stated),–,"inconclusive: 10 µM [inhibitor, partial curve, poor fit]",–
CN(C)c1ccc(-c2nnc([C@H]3CCN(Cc4ccco4)C3)o2)cc1,–,active: 7.94 µM,–
Cc1cc(C)n(-c2cccc(CN3CCCC(O)(CN(C)C)C3)c2)n1 (configuration not stated),–,"inconclusive: 7.08 µM [inhibitor, partial curve]",–
CC(C)C[C@@H]1N[C@H](C(=O)NCCOc2ccccc2)Cc2cn(C)c3cccc1c23,–,"inconclusive: 2.82 µM [inhibitor, single point]",–
CC1(c2ccccc2)N(Cc2cccnc2)C(=O)OC12CCN(C(=O)Cc1ccc(Cl)cc1)CC2 (configuration not stated),–,"inconclusive: 1.26 µM [inhibitor, full curve, poor fit]",–
Cc1cccc(NC(=O)CSc2nnc3[nH]c(=O)cc(C)n23)c1C,–,–,inactive

Structure (SMILES),"activity, negative = inhibition",Potency,outcome
O[C@H]1[C@H](n2cc(-c3cccc(F)c3)nn2)c2ccccc2C12CCNCC2,inactive: -10.4%,–,–
COc1cccc(CC(=O)N[C@@H]2C[C@H](Cn3cc(CN(C)C)nn3)[C@@H](O)[C@H]2O)c1,inactive: 5.19%,–,–
O=C(Cc1ccc(O)cc1)N1CCOC2(CCN(C(=O)c3ccccc3)CC2)C1,–,"inconclusive: 10 µM [inhibitor, single point]",–
C=CCN(Cc1cccc(OCC(N)=O)c1)Cc1ccccc1C,–,"inconclusive: 12.6 µM [inhibitor, partial curve, poor fit]",–
Cc1ccc(C2=NC3(CCN(C(=O)c4cc(Cl)ccc4F)CC3)ON2)cc1,inactive: -23.6%,–,–
CCN(CC)C(=O)C[C@@H]1c2nc(NC(=O)c3ccc(OC)cc3)sc2C[C@@H]2[C@](C)(CO)[C@H](O)CC[C@]21C,–,"inconclusive: 2 µM [inhibitor, partial curve, poor fit]",–
O=C(Nc1ccc2c(c1)OCCO2)[C@H]1CN(Cc2ccccc2)C[C@H]1C(=O)O,–,–,inactive
Cc1ccc(S(=O)(=O)N2CC(c3noc(-c4cccnc4)n3)C2)cc1Cl,–,"inconclusive: 8.91 µM [inhibitor, partial curve, poor fit]",–
CC(C)c1cc(C(=O)N2CC[C@H](N3CCOCC3)[C@H](CCCO)C2)nc(N)n1,inactive: -2.83%,–,–
COCCn1c(C)cnc1CC1CCN(C(=O)c2ccc(OC)nc2)CC1,inactive: 16.3%,–,–
COc1ccccc1CCC(=O)N1CCC(c2n[nH]c(=O)n2Cc2ccc(F)cc2)CC1,–,"inconclusive: 11.2 µM [inhibitor, single point]",–
CN(Cc1cc2n(n1)CCCNC2)Cc1nc(-c2ccccc2)cs1,–,"inconclusive: 11.2 µM [inhibitor, partial curve]",–
O=C(NCc1ccnc2[nH]ccc12)c1cccc(Cl)c1,–,"inconclusive: 31.6 µM [inhibitor, single point]",–
COCCN(CCOC)C(=O)[C@@H](C)C1CC[C@@]2(C)CC[C@H](NC(=O)COC)[C@@H](C)[C@@H]2[C@H]1O (some centres not stated),inactive: -9.08%,–,–
O=C(NC1CC1)[C@H]1CN2CCC1C[C@@H]2Cn1cc(CCO)nn1 (some centres not stated),inactive: 7.04% [at 44.1 µM],–,–
Cc1ccc(CS(=O)(=O)N[C@@H]2CN(c3ncccn3)C[C@H]2CN(C)C)cc1,–,"inconclusive: 11.2 µM [inhibitor, single point]",–
O=C(CN1C(=O)NC(c2ccc(Cl)cc2)C2=C1COC2=O)Nc1ccc2c(c1)OCO2 (configuration not stated),–,"inconclusive: 17.8 µM [inhibitor, single point]",–
COc1ccc(OC)c(S(=O)(=O)N2[C@@H]3CC[C@H]2CC(NC(=O)c2ccc(F)cc2)C3)c1 (some centres not stated),–,"inconclusive: 8.91 µM [inhibitor, partial curve, poor fit]",–
COc1ccc(CN2C(=O)CO[C@H]3CN(Cc4cccnc4)C[C@H]32)cc1,inactive: -27.4% [at 44.1 µM],–,–
CN(C)[C@@H]1CN(C2CCCCCC2)CC[C@@H]1CO,–,"inconclusive: 11.2 µM [inhibitor, single point]",–
O=C(Nc1nc2c(F)cc(F)cc2s1)c1ccc2c(c1)OCCO2,–,"inconclusive: 10 µM [inhibitor, partial curve, poor fit]",–
